# Data as given in article PMC4336329 (PLoS ONE, 2015).
# In all, about 310,000 compounds went through this assay and about 2,200 (0.71%) showed an effect of 50% or more. Effects have a minus sign here. Some of the results follow.
# Biological target: human ether-à-go-go-related gene (hERG) potassium channel (human, UniProt Q12809)
# Experiment: primary screen, population patch clamp on CHO cells stably expressing hERG
# Chain of human ether-à-go-go-related gene (hERG) potassium channel (Q12809 whole entry, looked up): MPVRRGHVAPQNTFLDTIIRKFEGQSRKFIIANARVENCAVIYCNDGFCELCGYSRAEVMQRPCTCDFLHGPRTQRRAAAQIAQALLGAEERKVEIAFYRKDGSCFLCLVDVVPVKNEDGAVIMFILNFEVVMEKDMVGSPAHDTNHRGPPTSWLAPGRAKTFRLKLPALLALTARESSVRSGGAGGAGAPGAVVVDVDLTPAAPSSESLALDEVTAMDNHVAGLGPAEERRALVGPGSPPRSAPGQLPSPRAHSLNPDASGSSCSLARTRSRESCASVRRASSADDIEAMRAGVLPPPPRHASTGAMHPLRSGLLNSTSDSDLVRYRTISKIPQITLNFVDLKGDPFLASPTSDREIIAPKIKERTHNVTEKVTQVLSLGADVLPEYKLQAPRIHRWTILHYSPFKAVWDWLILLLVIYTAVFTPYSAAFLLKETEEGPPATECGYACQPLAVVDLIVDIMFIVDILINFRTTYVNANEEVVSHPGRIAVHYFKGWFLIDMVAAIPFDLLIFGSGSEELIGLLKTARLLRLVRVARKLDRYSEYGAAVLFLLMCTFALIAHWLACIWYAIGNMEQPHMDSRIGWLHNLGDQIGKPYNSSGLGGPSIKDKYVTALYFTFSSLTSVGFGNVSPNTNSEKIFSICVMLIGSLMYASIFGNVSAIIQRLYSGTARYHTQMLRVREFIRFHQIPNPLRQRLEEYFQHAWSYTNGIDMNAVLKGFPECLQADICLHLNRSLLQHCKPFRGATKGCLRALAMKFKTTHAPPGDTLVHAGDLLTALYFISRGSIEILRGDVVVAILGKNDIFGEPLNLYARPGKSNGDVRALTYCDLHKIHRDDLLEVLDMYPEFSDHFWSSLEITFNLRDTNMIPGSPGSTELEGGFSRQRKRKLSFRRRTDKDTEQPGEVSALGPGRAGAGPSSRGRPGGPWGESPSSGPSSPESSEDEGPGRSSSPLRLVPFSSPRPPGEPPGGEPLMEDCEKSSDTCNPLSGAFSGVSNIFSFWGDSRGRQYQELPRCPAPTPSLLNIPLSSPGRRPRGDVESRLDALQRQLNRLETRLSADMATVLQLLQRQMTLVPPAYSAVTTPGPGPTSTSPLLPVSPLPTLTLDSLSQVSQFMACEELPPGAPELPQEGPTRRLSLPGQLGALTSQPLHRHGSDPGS
row,SMILES,"hERG current change (%, negative = inhibition) at 1uM [%]"
1,O=C(C1=C(O)C(=O)N(CCN2CCOCC2)C1c1cccc(Br)c1)c1cc2ccccc2o1 (stereo not shown),12.7
2,N#CC1=C(N)NC(SCc2ccc(Br)cc2)=C(C#N)C12CCCCC2,4.53
3,CCOc1ccc(N(CC(=O)N/N=C/c2cc([N+](=O)[O-])ccc2Cl)S(C)(=O)=O)cc1,-2.41
4,COc1cc(S(=O)(=O)N2CCC(c3nc4ccccc4s3)CC2)ccc1S(=O)(=O)N1CC(C)CC(C)C1 (stereo not shown),13.6
5,O=C(Cn1nnc2c(cnn2-c2ccc(F)cc2)c1=O)c1ccccc1F,7.76
6,COc1ccc(-c2nnn(CCc3nn[nH]n3)n2)cc1OC,15.8
7,Cc1ccn(C(=O)c2ccc(NC(=O)C3CCCCC3)cc2)n1,3.48
8,O=C(CSc1nnc(-c2ccc(O)cc2)o1)Nc1ccccc1,9.47
9,CC1=NC(C)Cc2ccccc21.Cl (stereo not shown),17.6
10,CC(NC(=O)COC(=O)CCc1nc(=O)c2ccccc2n1C)c1ccccc1 (stereo not shown),15.5
11,CC1=C(C)CC(C(=O)NCc2ccc3c(c2)OCO3)C(C(=O)O)C1 (stereo not shown),14.2
12,O=c1cc(C(F)(F)F)nc(SCc2cccnc2)[nH]1,10.8
13,CCCNC(=S)N1CCN(c2nc(C)nc3sc4c(c23)CCCC4)CC1,-3.85
14,CN(Cc1ccccc1)C(=O)c1nc[nH]c1C(=O)N(C)Cc1ccccc1,4.39
15,CN1CCC(=O)N([C@H](CSc2ccc(Br)cc2)Cc2ccccc2)CC1,-16.6
16,CCOc1ccc(N2C(=O)CC(NC3CCN(C(=O)c4ccc(F)cc4)CC3)C2=O)cc1 (stereo not shown),13.1
17,C=CCNc1cc(C)oc(=O)c1C(=O)CCC,13.8
18,O=C(CNC(=S)N(CCCN1CCOCC1)Cc1cccs1)NCCCN1CCOCC1,16.3
19,Cc1ccc(NC(=O)CCC(=O)c2cccs2)cc1,2.02
20,Cc1cc(Oc2ccc(=O)[nH]n2)nc(Cl)n1,13.8
21,Cn1c(N)c(S(=O)(=O)N2CCN(Cc3ccccc3)CC2)c(=O)n(C)c1=O,-1.66
22,O=C(CSc1nnc(CNC(=O)c2c(F)cccc2F)o1)Nc1ccc2c(c1)OCO2,8.14

row,SMILES,"hERG current change (%, negative = inhibition) at 1uM [%]"
1,CCN(CC)CCNC(=O)C12CC3CC(CC(C3)C1)C2.Cl,-2.95
2,Cc1ccc(CN2CCN(C3CCOCC3)CC2CCO)cc1 (stereo not shown),-9.32
3,O=c1c2ccccc2nnn1Cc1ccc(F)cc1,6.47
4,COc1ccccc1C(=O)NC(=O)COC(=O)/C(=C/c1ccccc1)NC(C)=O,-2.59
5,CCN(CC(=O)Nc1c(F)cccc1F)C(=O)/C=C/c1ccc2ccccc2n1,4.28
6,COc1cccc2c(=O)n(CC(=O)NC3CCCC3)ccc12,12.7
7,CC(C)(C)n1cnnc1Sc1ccc([N+](=O)[O-])cn1,6.11
8,c1ccc(-c2csc3ncn4nnnc4c23)cc1,0.973
9,COc1ccc2c(c1)c1ccccc1n2C,9.94
10,Cc1ncc(CN2CCC(CO)(CCOc3ccccc3)CC2)s1,-35.6
11,O=C(CCc1nc2sc3c(c2c(=O)[nH]1)CCCC3)NCCc1ccc(F)cc1,5.64
12,C=CCn1c(=O)c2c(nc3n2CCN3c2cccc(Cl)c2C)n(C)c1=O,3.58
13,Cc1ccc2nc(SCC(=O)N3CCCC3)nc(=O)n2c1,11.4
14,Cc1cc(C)c(S(=O)(=O)Nc2ccccc2-c2ccccc2)c(C)c1,6.87
15,COc1ccc(-n2c(SCC(=O)NCC3CCCO3)nc3ccccc32)cc1 (stereo not shown),-0.367
16,CCC/C(O)=C1\C(=O)CC(C)(C)CC1=Nc1ccc(OC)cc1,10.5
17,COc1ccccc1CNC(=O)C1CCCN(S(=O)(=O)c2cnc[nH]2)C1 (stereo not shown),8.47
18,O=C(CSc1ccc2ccccc2n1)c1ccc2c(c1)OCO2,-0.54
19,Cc1cc(C)n(-c2ccnc3cc(Cl)ccc23)n1,13.1
20,COc1ccc(CN(C#N)c2nc(C)cc(C)n2)cc1,14.7
21,O=C(CCn1c(=O)oc2ccc(Cl)cc21)N1CCN(Cc2ccccc2)CC1,-4.55
22,Cc1ccc(C(=O)NC(=O)OCCn2c(C)cnc2[N+](=O)[O-])cc1,-2.2

row,SMILES,"hERG current change (%, negative = inhibition) at 1uM [%]"
1,O=C1C2C(c3ccccc3)C=CC(c3ccccc3)C2C(=O)N1c1ccncc1 (stereo not shown),11.4
2,CC12CCC(C(=O)NCc3ccccc3Cl)(OC1=O)C2(C)C (stereo not shown),-1.57
3,NS(=O)(=O)c1cc(C(=O)OCCNC(=O)c2ccccc2)c(Cl)cc1Cl,13.6
4,CC(C)(C)c1ccccc1NC(=O)NC1CCN(Cc2c(F)cccc2Cl)CC1,11.7
5,COc1ccccc1C(=O)Oc1ccc(C(C)(C)C)cc1,-4.75
6,CC(=O)[C@H]1[C@H](c2cccc(Cl)c2)C(C#N)(C#N)[C@@H]2c3ccccc3C=CN21,8.93
7,COc1ccc(-c2csc(NC(=O)Cc3ccccc3F)n2)c(OC)c1,20.1
8,CC1CCC(=NNC(=O)Cc2cccn2C)CC1 (stereo not shown),8.86
9,CCCCCCCCNC(=O)CC(NS(=O)(=O)c1ccc(NC(C)=O)cc1)C(C)C (stereo not shown),6.24
10,COc1ccc(CC2(CO)CCN(Cc3cccc4nccnc34)CC2)cc1,-53
11,Cc1ccc(OCCCC(=O)NC2CCCCC2)cc1,14.7
12,O=C(O)CC(NC(=O)c1cccc([N+](=O)[O-])c1)c1ccc2c(c1)OCO2 (stereo not shown),13.1
13,O=C(Cc1ccc(Cl)cc1)Nc1ccccn1,23.3
14,CCn1cc(C(=O)OCC(=O)Nc2c(C)cccc2C)c(=O)c2ccc(C)nc21,14.5
15,Cc1nc2sc(C(c3cccs3)N3CCC(C(N)=O)CC3)c(O)n2n1 (stereo not shown),10.8
16,CCC(=O)N1CCc2cc(S(=O)(=O)CCC(=O)Nc3ccc(C(C)=O)cc3)ccc21,0.948
17,CN(Cc1ccccc1)C(=O)N[C@@H](Cc1ccccc1)C(=O)O,8.82
18,COc1ccc(S(=O)(=O)N2CCOC23CCN(S(=O)(=O)c2ccc([N+](=O)[O-])cc2)CC3)cc1,-12.2
19,Cc1cccc(NC(=O)c2cc(S(=O)(=O)N3CCc4ccccc43)cn2C)c1C,12.7
20,CCOc1ccc(CCNS(=O)(=O)c2c(C)n[nH]c2C)cc1OCC,4.57
21,Nc1c(S(=O)(=O)c2cc(Cl)ccc2Cl)c2nc3ccccc3nc2n1CCN1CCOCC1,-3.72
22,COc1ccc(NC(=O)C2CCN(C(=O)Cc3ccccc3)CC2)cc1OC,12.1

row,SMILES,"hERG current change (%, negative = inhibition) at 1uM [%]"
1,CC1CCCN(CCCNC(=O)c2cn(C)c3ccc(S(=O)(=O)N(C)C4CCCCC4)cc3c2=O)C1 (stereo not shown),-13.2
2,C#CC(C)(C)NC(=O)CSc1nc2c(c(=O)n(C)c(=O)n2C)n1CCCC,0.505
3,COc1ccc(-c2cc(=O)c3c(O)cc(O[C@@H]4O[C@H](CO[C@@H]5O[C@@H](C)[C@H](O)[C@@H](O)[C@H]5O)[C@@H](O)[C@H](O)[C@H]4O)cc3o2)cc1O,12.5
4,CCOC(=O)c1sc(NC(=O)c2ccccc2F)c(C(N)=O)c1C,7.97
5,CCc1ccc(NS(=O)(=O)c2ccc3[nH]cc(C(=O)N(C)Cc4ccco4)c(=O)c3c2)cc1,-3.76
6,Cl.Ic1ccc(N2CCN(Cc3c[nH]c4ncccc34)CC2)cc1,14.1
7,COc1cc(NC(=S)N2CCCC(C)C2)c(OC)cc1Cl (stereo not shown),19.4
8,COc1ccc(C(=O)N2CCNC(=O)C2)cc1S(=O)(=O)Nc1ccc(Br)cc1,5.42
9,C=C(CC1CC(O)[C@]2(C)OC3CC4OC5C[C@]6(C)O[C@]7(C)CCC8OC9C[C@]%10(C)OC%11C(C)=CC(=O)OC%11CC%10OC9C[C@@H](C)C8OC7CC6O[C@]5(C)C/C=C\C4OC3CC2O1)C(=O)O (stereo partly shown),5.87
10,Cc1ccc(CNC(=O)c2ccc3c(=O)[nH]c4c(C(=O)NCC5CCCO5)sc(=S)n4c3c2)cc1 (stereo not shown),-6.3
11,COc1cccc(C(=O)NC(C)C(c2cccs2)N2CCN(C)CC2)c1 (stereo not shown),-1.59
12,O=C(Cn1cc(C(F)(F)F)ccc1=O)N/N=C/c1cccc(Cl)c1Cl,4.24
13,C=CCN(CC=C)c1nc2ccccc2nc1C(C#N)C(=O)OCCOC (stereo not shown),8.8
14,COc1ccc(NC(=S)N2CCC(c3ccc(C)cc3)C2)cc1 (stereo not shown),6.63
15,C=CCn1c(SCC(=O)NC(=O)NCC(C)C)nnc1C1CCCCC1,13.9
16,CCOc1ccccc1NC(=O)NCc1ccccc1F,15.4
17,Clc1cccc(-c2nnc(-c3ccno3)o2)c1,13.3
18,CCC(C)(C)NC(=O)C(c1ccc(OC)cc1)N(Cc1ccco1)C(=O)CCC(=O)Nc1cc(C)on1 (stereo not shown),4.86
19,Cc1cc(NC(=O)CC23CC4CC(C2)CC(CC(=O)Nc2cc(C)on2)(C4)C3)no1,12.6
